# Assay results: PubChem BioAssay AID1347416 (National Center for Advancing Translational Sciences (NCATS), 2020)
# The whole screen tested about 4,100 compounds, of which about 1,600 (39%) were called active. This list was built around the results that the source calls inconclusive (neither active nor inactive); the mix of calls is not that of the screen. The call rests on the fitted dose curve; in most records, active means well fitted inhibition curve with a large enough effect; inconclusive means small, poorly fitted or top-dose-only effect; inactive means no such curve, though single readings can be large or run the other way. Where the call is inconclusive, the potency comes from a doubtful curve fit.
# Assay: qHTS Validation assay for Inhibitors of Plasmodium falciparum Dd2 growth in vitro; further: nearly all actives have a fitted effect of over 70% in size
# Conditions: P. falciparum Dd2 in RBCs, SYBR Green growth, 72 h; activity change, negative = inhibition: at 28.7 µM (top of the series) unless noted
# Procedure, shortened: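 P. falciparum Dd2-infected red blood cells (2.5% hematocrit, 0.3% parasitemia) grown 72 h at 37 °C under 5% O2 with compounds in a titration, 29 uM to 0.5 nM final. Growth read as SYBR Green-1 fluorescence after ~16 h lysis; artesunate 300 nM as positive control.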
# On the % scale 0 is the no-effect control and ±100 the full control effect; potency means the concentration at half of the fitted maximal effect; tags describe the fitted curve by direction and shape.
Compound,"activity change, negative = inhibition",Potency
Cc1cccc(CNC(=O)c2nnn3cc(C)[nH]c(=O)c23)c1,inactive: 13.4%,–
COc1ccc(CCNc2nc3c(c(=O)n(C)c(=O)n3C)n2Cc2ccc(F)cc2)cc1OC,–,"inconclusive: 21.1 µM [inhibitor, partial curve, poor fit]"
Cn1cc(C(NS(=O)(=O)c2cccc3c2OCCO3)C2CC(O)C2)cn1 (configuration not stated),inactive: 14.4%,–
CC(C)Cc1nc2nccc(-c3cccs3)n2n1,inactive: 4.53%,–
Cn1c(=O)c2ccnn2c2ccc(C(=O)NCC3CCN(Cc4cccc(F)c4)CC3)cc21,–,"inconclusive: 21.1 µM [inhibitor, single point]"
COc1ccccc1CNCC(O)Cn1c2ccccc2c2ccccc21 (configuration not stated),–,"inconclusive: 0.842 µM [inhibitor, full curve, poor fit]"
COCCCNc1ncnc2sc3c(c12)CCNC3,–,"inconclusive: 23.7 µM [inhibitor, single point]"
Oc1c(CN2CCCC2)cc(COCc2ccccc2)c2cccnc12,–,active: 6.68 µM
O=C1NC(=NC2CCCCC2)C2(CCCN([S+](=O)([O-])c3ccccc3)C2)N1c1cccnc1 (configuration not stated),inactive: -14.7%,–
O=C(Nc1ccc(F)c(F)c1)c1ccc(=O)n(Cc2ccc(F)cc2)c1,inactive: 3.37%,–
CC(C)[C@@H]1CN(S(=O)(=O)c2ccc(Cl)cc2Cl)C[C@H]1N(C)C,–,active: 6.68 µM
C=CCOC(=O)C(C#N)c1nc2ccccc2nc1N1CCC(C(=O)OCC)CC1 (configuration not stated),–,active: 2.37 µM
O=C(NC1CCN(c2cc(-c3cccs3)[nH]n2)C1)c1cccs1 (configuration not stated),inactive: -18.2%,–
COc1ccc(-c2noc(-c3cccn3CC(=O)Nc3cccc(Cl)c3C)n2)cc1F,inactive: 8.36%,–
COCc1nc(-c2ccc(OC3CN(S(=O)(=O)c4ccccc4C)C3)cc2)no1,inactive: -1.15%,–
Cc1ccc(Oc2nc(-c3ccccn3)nc3ccccc23)cc1,–,"inconclusive: 21.1 µM [inhibitor, single point]"
CN1C(=O)Cc2cc(C(=O)NC3CCN(Cc4ccccc4)CC3)ccc21,–,"inconclusive: 18.8 µM [inhibitor, single point]"
CC(=O)Nc1ccc(SC[C@H](Cc2ccccc2)N2CC[C@@H](C(C)(C)C)CCC2=O)cc1,–,"inconclusive: 21.1 µM [inhibitor, single point]"
CC(C)NC(=O)N1CCN(S(=O)(=O)c2ccccc2)[C@@H](C(=O)N[C@H](Cc2c[nH]c3ccccc23)C(N)=O)C1,inactive: 15.9%,–
CC(C)c1cc(C(=O)Nc2cc(Cl)ccc2O)no1,–,active: 6.68 µM
O=C(Nc1cc(C(F)(F)F)cc(C(F)(F)F)c1)Nc1cnn(-c2ccc([N+](=O)[O-])cc2)c1C(F)(F)F,–,active: 6.68 µM
CCOc1cc(C2NC(=O)c3c(sc4c3CCN(C)C4)N2)ccc1OC(=O)c1ccccc1Cl (configuration not stated),inactive: 28.3%,–
O=C(NCCc1ccccn1)c1ccc(-c2nnc3ccc(NC(=O)C4CCC4)cn23)cc1,–,"inconclusive: 6.68 µM [inhibitor, full curve, poor fit]"
Cn1cc(CN2CCCC(CO)(Cc3ccccc3)C2)cn1 (configuration not stated),–,"inconclusive: 5.96 µM [inhibitor, full curve]"

Compound,"activity change, negative = inhibition",Potency
CNC(=O)[C@@H]1CN(Cc2cc(C(F)(F)F)ccc2Cl)C[C@H]1CO,inactive: 11.3%,–
Cc1oc2ncn(CC(C)C)c(=O)c2c1C(=O)NCCCN1CCC(C)CC1,–,"inconclusive: 13.3 µM [inhibitor, single point]"
Cc1ccsc1CNCc1cc(Cl)ccc1O,–,"inconclusive: 21.1 µM [inhibitor, single point]"
CC(=O)C1=C(c2ccc(Br)cc2)N(C(C)=O)n2c(nnc2C2CCCCC2)S1,–,active: 2.99 µM
O=C(Nc1ccc(Oc2cccnc2)cc1)C1CCN(Cc2cc(Cl)ccc2O)CC1,–,"inconclusive: 21.1 µM [inhibitor, single point]"
CN1CCNc2nc(COc3ccc(Oc4ccccc4)cc3)n(Cc3ccccc3)c2C1=O,inactive: -10.4%,–
COc1ccc(S(=O)(=O)N2CCN(C(=S)NC3CCCCC3)CC2)cc1,–,active: 6.68 µM
Cn1c(C(=O)NCCN2CCCCC2)cc2c1CCN(Cc1cccc(F)c1)C2,–,"inconclusive: 13.3 µM [inhibitor, single point]"
COc1ccc(O)c(/C=N/Nc2nc(Nc3ccccc3)nc(-n3nc(C)cc3C)n2)c1,–,"inconclusive: 5.96 µM [inhibitor, partial curve, poor fit]"
Cc1nc(-c2ccccc2OC2CN(S(=O)(=O)Cc3ccccc3F)C2)no1,inactive: -13%,–
O=C(Cn1ccc2cc(S(=O)(=O)N3CCCCCC3)ccc21)NCCc1ccc(Cl)cc1,inactive: -7.98%,–
CNC(=O)[C@H]1C[C@H](Oc2ccccc2)CN1C(=O)CCc1nc2ccccc2[nH]1,inactive: 4.06%,–
Cc1ccoc1C(=O)Nc1ccc(CC(=O)O)cc1,inactive: 32.1%,–
Cc1ccc(S(=O)(=O)N(CC(=O)Nc2ccc3c(c2)OCO3)c2ccc(C)c(Cl)c2)cc1,–,"inconclusive: 16.8 µM [inhibitor, single point]"
COC(=O)C1=C(C)N(c2ccc(OC)cc2)C(C)=C(C(=O)OC)C1c1ccccc1,–,active: 9.44 µM
Cc1cccc(C(=O)N2CCCCCCNC(=O)[C@@H]3C[C@@H](C(=O)N4CCc5ccccc5C4)C[C@@H]32)c1,–,"inconclusive: 16.8 µM [inhibitor, single point]"
COc1ccccc1N1CCN(C(=O)C2CCCN(S(=O)(=O)c3ccc4c(c3)oc(=O)n4C)C2)CC1 (configuration not stated),–,"inconclusive: 5.96 µM [inhibitor, partial curve]"
Clc1ccc2c(NCc3ccccn3)ccnc2c1,–,active: 2.11 µM
O=C(c1cccs1)N1CCC(N2CC(OCC3CC3)C23CCCCC3)CC1 (configuration not stated),–,"inconclusive: 15 µM [inhibitor, single point]"
O=C1CCN(C(=O)C2(c3ccccc3)CC2)CCCC(C(=O)NCc2ccccc2)CCN1 (configuration not stated),–,"inconclusive: 7.5 µM [inhibitor, partial curve, poor fit]"
COc1cccc(CNC(=O)Cn2c(SCC(=O)Nc3ccc(F)cc3)nc3ccccc32)c1,inactive: -22.5%,–
C=C[C@]1(C)C[C@@H](OC(=O)CSC(C)(C)CNC(=O)[C@H](N)C(C)C)[C@]2(C)[C@H](C)CC[C@]3(CCC(=O)[C@H]32)[C@@H](C)[C@@H]1O,–,active: 8.41 µM
COc1ccc(/C=N/Nc2nc(Nc3ccccc3)nc(N3CCCC3)n2)cc1[N+](=O)[O-],–,active: 6.68 µM
COc1cccc(CNC(=O)[C@@H]2C[C@@H](O)CN2C2CCN(C(=O)c3ccc(OC)c(F)c3)CC2)c1,inactive: 0.134%,–

Compound,"activity change, negative = inhibition",Potency
COc1ccc2c(CNCCc3ccccc3OC)c(C(=O)O)n(Cc3ccc(F)cc3Cl)c2c1,–,"inconclusive: 18.8 µM [inhibitor, single point]"
Cc1oc2ccn(Cc3ccc(F)cc3)c(=O)c2c1C(=O)NC1CC1,–,"inconclusive: 21.1 µM [inhibitor, single point]"
CCC(=O)N1CCc2cc(Br)cc(S(=O)(=O)N3CCN(c4cccc(Cl)c4)CC3)c21,–,"inconclusive: 16.8 µM [inhibitor, partial curve, poor fit]"
O=C(Cc1ccc(F)cc1)N1CCC2(CC1)CCN(Cc1cccs1)c1ccccc1O2,–,"inconclusive: 21.1 µM [inhibitor, single point]"
CCCCCNc1nc2c(-c3ccccc3)nnn2c2ccccc12,–,"inconclusive: 11.9 µM [inhibitor, partial curve]"
COc1ccc(CNC[C@H]2O[C@H](Cc3cc(-c4ccc(OC)cc4)on3)CC[C@@H]2O)cc1,–,active: 10.6 µM
COc1ccc(CN2CCCCC23Cc2ccccc2CNC3=O)cc1F (configuration not stated),–,"inconclusive: 13.3 µM [inhibitor, partial curve, poor fit]"
COc1ccccc1N1CCN([C@H]2[C@@H]3OC[C@@H](O3)[C@@H](N(CC3CC3)CC3CC3)[C@@H]2O)CC1,inactive: 16.2%,–
COc1cc2c(cc1OC)C(c1ccccc1N)=NCC2,inactive: -18.1%,–
COc1ccc(CNC(=O)CCc2c(C)nn(-c3ccc(N4CCOCC4)nn3)c2C)cc1,inactive: 24.5%,–
c1cnc(N2CCOCC2)c(OC2CCNC2)n1 (configuration not stated),–,active: 7.5 µM
Cc1noc(C)c1NC(=O)N1CCC(c2n[nH]c(=O)n2-c2ccccc2)CC1,inactive: 21.1%,–
Cc1cccc(Nc2nc(NCc3ccco3)c3ccccc3n2)c1,–,active: 4.73 µM
Cn1cnnc1-c1nn(C)c2c1CN(C(=O)c1cc3ccccc3[nH]1)CC2,inactive: -20.5%,–
O=C(Nc1nc2ccccc2n1Cc1ccccc1)c1ccc(COc2ccccc2[N+](=O)[O-])o1,–,active: 16.8 µM
Cc1[nH]n(C(N)=S)c(=O)c1C(c1ccccc1)C(C#N)C#N (configuration not stated),–,"inconclusive: 6.68 µM [inhibitor, full curve]"
CN(C)c1cc[n+](CC(=O)c2cccs2)cc1,–,"inconclusive: 6.68 µM [inhibitor, full curve]"
Cc1ccc(Nc2cc(=O)oc3ccccc23)c(C)c1,inactive: -20.1%,–
N#Cc1c2c(c(NCc3ccco3)n3c1nc1ccccc13)CCC2,–,active: 2.37 µM
COc1ccc(-c2noc(-c3cccn3CC(=O)Nc3ccc(C)cc3C)n2)cc1F,–,"inconclusive: 10.6 µM [inhibitor, partial curve]"
CCN(CC)c1cc(C)c2cc(NC(=O)c3ccc(Br)o3)ccc2n1,–,active: 6.68 µM
CC(C)(C)NC(=O)Cn1ccc(=N)c2ccccc21,–,"inconclusive: 13.3 µM [inhibitor, single point]"
Cc1ccc2c(C)c(C(=O)N3CCCC3c3nc(C(C)C)no3)oc2c1C (configuration not stated),–,active: 6.68 µM
CCc1ccc(NC(=O)C2CCN(c3cc(C(F)(F)F)ncn3)CC2)cc1,–,"inconclusive: 21.1 µM [inhibitor, single point]"
